Test results as given in PubChem BioAssay AID1745853 (National Center for Advancing Translational Sciences (NCATS), 2022).
“And” between values parts separate entries of the source, which are not always exact repeats. Identical values can stand only once. Some of the results follow. These are further read-outs of the screen, such as a control signal, another cell line or another target. No call is given for them.

What was measured:
Test in all cases: Primary Screen for Target Class Profiling of Small Molecule Inhibitors of Methyltransferases
[1] = target: Glycine N-methyltransferase (Homo sapiens) (UniProt Q14749); conditions: purified enzyme, MTase-Glo SAH luminescence; measured here: GNMT inhibition; at 40 µM; stronger effect = lower value
Outline: (§1)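 Each enzyme was assayed with SAM and its substrate. SAH formation detected by MTase-Glo luminescence; single-point 40 uM screen[…].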

[2] = target: Guanidinoacetate N-methyltransferase (Homo sapiens) (UniProt Q14353); conditions: purified enzyme, MTase-Glo SAH luminescence; measured here: GAMT inhibition; at 40 µM; stronger effect = lower value
Outline: as §1

[3] = target: Histamine N-methyltransferase (Homo sapiens) (UniProt P50135); conditions: purified enzyme, MTase-Glo SAH luminescence; measured here: HNMT inhibition; at 40 µM; stronger effect = lower value
Outline: as §1

[4] = target: Nicotinamide N-methyltransferase (Homo sapiens) (UniProt P40261); conditions: purified enzyme, MTase-Glo SAH luminescence; measured here: NNMT inhibition; at 40 µM; stronger effect = lower value
Outline: as §1

[5] = target: Phenylethanolamine N-methyltransferase (Homo sapiens) (UniProt P11086); conditions: purified enzyme, MTase-Glo SAH luminescence; measured here: PNMT inhibition; at 40 µM; stronger effect = lower value
Outline: as §1
% is scaled to controls: 0 for no effect and ±100 for the full control effect.

Structure (SMILES) | activity change, negative = inhibition [1] | activity change, negative = inhibition [2] | activity change, negative = inhibition [3] | activity change, negative = inhibition [4] | activity change, negative = inhibition [5]
COc1ccc(Nc2nc3c(S(=O)(=O)c4ccccc4)nnn3c3ccccc23)c(OC)c1 | 1.01% | 0% | 10% | 7.51% | 0.519%
O=C1NCCCc2c1oc1ccc(O)cc21 |  | -11.6% |  | -17.9% | -2.44%
Cc1occc1C(=O)N1CCC(CCC(=O)N2CCN(c3ccccc3)CC2)CC1 | -6% | -5.72% | -5.93% | -8.49% | -7.78%
CCC(C)NC(=O)c1ccc2c(=O)n(CCC(C)C)c3nn(Cc4ccc(F)cc4)c(=O)n3c2c1 (stereo not drawn) | 2.52% | 0% | 8.66% | -0.664% | 5.55%
COc1cc(N2CCC(N3CCN(C)CC3)CC2)ccc1Nc1ncc(Cl)c(Nc2ccccc2P(C)(C)=O)n1 | -9.53% | -5.07% | -43.8% | -18.6% | 0.47%
CN(C)c1ccc(-c2nnc([C@H]3CCN(Cc4ccccn4)C3)o2)cc1 | -15.7% | -9.03% | -21.3% | -14.7% | -2.43%
CCOC(=O)c1cc2n(n1)CC(C)(C(=O)NC1CCCC1)N(c1ccc(C)cc1Cl)C2=O (stereo not drawn) | 6.86% | 2.11% | 9.26% | 7.46% | 5.45%
CSc1ccc(CCN2C(=O)c3cc4ccccc4n3CC2(C)C(=O)NC2CCCC2)cc1 (stereo not drawn) | -2.64% | 3.07% | -1.08% | -4.11% | -4.19%
Cc1cc2[nH]c(=O)[nH]c2cc1S(=O)(=O)Nc1ccccc1 | 9.73% | 1.05% | 11.9% | 1.42% | 2.89%
CC1=C(C(=O)OCc2ccccc2)C(c2ccc(-c3ccccc3)cc2)NC(=O)N1CCCCCC(=O)O (stereo not drawn) | -57.5% | 6.3% | 6.88% | -45.4% | 5.43%
COc1cccc(CN2C(=O)c3cc4sccc4n3CC2(C)C(=O)NC2CCCCCC2)c1OC (stereo not drawn) | 2.4% | -5.81% | 7.73% | 0.533% | 3.75%
CCOCCCNC(=O)CCc1nnc2n(CCc3ccccc3)c(=O)c3ccccc3n12 | -6.62% | 1.42% | 9.1% | 12.6% | 2.3%
Cc1ccc(C)c(C(=O)Cn2nc3n(Cc4ccccc4)c(=O)c4ccccc4n3c2=O)c1 | 5.69% | 0% | 12.6% | -9.4% | 6.42%
O=C(NCCc1ccc(Cl)cc1)c1cc(-c2cccs2)c2cccn2n1 | -20.5% | -2.48% | -12.7% | -7.63% | -9.79%
Cc1cc(N)c2ccccc2[n+]1CCCCCCCCCC[n+]1c(C)cc(N)c2ccccc21 | -14.9% and -19.9% | 8.45% and 10.8% | -93.9% and -95.4% | -48.9% and -45.3% | -10.3% and -6.11%
COc1ccc(/C=C/C(=O)O[C@H]2[C@H](O[C@H]3[C@@H]4C=CO[C@@H](O[C@@H]5O[C@H](CO)[C@@H](O)[C@H](O)[C@H]5O)[C@@H]4[C@@]4(CO)O[C@@H]34)O[C@@H](C)[C@H](O)[C@H]2OC(C)=O)cc1 | -1.29% | -11.4% | -3.61% | -21.7% | -1.48%
O=C(CCc1nc(-c2cccnn2)no1)NC1CCCCCCC1 | -3.23% | -8.71% | -1.06% | -12.9% | -7.49%
CC1CCCC(NC(=O)C2(C)Cn3c(cc4sccc43)C(=O)N2CCc2ccccc2)C1C (stereo not drawn) | -5.55% | 3.88% | -3.67% | -0.079% | -4%
CN(C)C(=O)Oc1ccc[n+](C)c1 | 2.27% | 20.5% | 6.96% | 4.45% | 7.88%
Nc1c2c(nc3ccccc13)CCCC2O (stereo not drawn) | 6.53% | 10.6% | -39.6% | -5.47% | 5.91%
CC(C)(O)C#Cc1ccc(-c2nccn2-c2cccc(-n3cncn3)c2)cc1 | -3.76% | -4.87% | -6.34% | -7.7% | -6.67%
Cn1c(=O)c2ccc(C(=O)NC3CCCC3)cc2n2c(=O)n(CC(=O)Nc3cccc(F)c3)nc12 | -0.771% | 3.86% | -1.03% | -16% | -0.992%
O=C(Cn1nc2n(CCc3ccccc3)c(=O)c3ccccc3n2c1=O)Nc1cc(F)ccc1F | 4.19% | 2.07% | 7.43% | 5.35% | 4.32%
CCC(C(=O)N1CCOCC1)n1ccc2cc(S(=O)(=O)N3CCCCC3)ccc21 (stereo not drawn) | -2.07% | 4.65% | -3.21% | -6.14% | -0.856%
COCCCNc1nc2c(-c3ccc(C)cc3)nnn2c2ccccc12 | -4.55% | 4.93% | -2.53% | 3.62% | -13.9%
Cn1c([C@H]2CCN(Cc3ccc4c(c3)OCO4)C2)nc2ccccc21 | -10.6% | -7.05% | -16.7% | -19.6% | -17.2%
CC1=C(C(=O)O)N2C(=O)[C@@H](NC(=O)C(N)c3ccccc3)[C@H]2SC1 (stereo partly drawn) | 10.5% | 13.9% | 11.2% | -8.17% | -0.015%
CC(=O)NCC(=O)N1CCC(c2cc(-c3ccc(F)cc3)n[nH]2)CC1 | -6.49% | -5.46% | -1.59% | -9.38% | -3.03%
COc1ccc(NS(=O)(=O)c2ccc3[nH]c4c(c3c2)CCCC4)cc1 | -9.92% | -0.226% | -3.99% | -14% | -3.17%
